# The campaign covered roughly 360,000 compounds. About 17,000 (4.7%) were called active. This list was built around the results that the source calls inconclusive (neither active nor inactive); the mix of calls is not that of the screen. Cut-off read from the data, not from the text of the source: active = activity change below about -50%; inconclusive = mostly about -30% to -49%; inactive = weaker than that.
# Experiment: qHTS for Inhibitors of Inflammasome Signaling: IL-1-beta AlphaLISA Primary Screen
# Settings: THP-1 LPS/ATP IL-1B secretion, 16 h; at 57.5 µM, hits give low values
# Procedure, shortened: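 Secreted IL-1B measured by AlphaLISA bead assay after 16 h compound exposure of THP-1 cells; compounds (final up to 57.5 uM) added 1 h before LPS (250 ng/mL) and ATP (1.25 mM) stimulation; lower signal means less secretion.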
# % is set by controls: 0 for no effect and ±100 for the full control effect.
row,Compound,activity change
1,CCCCCN(C(=O)CCC(=O)OCC(=O)c1ccc(C(C)(C)C)cc1)c1c(N)n(CCCC)c(=O)[nH]c1=O,inconclusive: -39.9%
2,CC(C(=O)NCc1ccccc1Cl)n1cc([N+](=O)[O-])cn1 (stereo not given),inactive: 23.3%
3,COC(=O)c1c(NC(=O)CC2SC(N)=NC2=O)sc2c1CCC(C)C2 (stereo not given),inconclusive: -36.7%
4,O=C(C(=O)N(Cc1ccccc1)Cc1ccccc1)c1c(-c2ccccc2)[nH]c2ccccc12,inconclusive: -37.7%
5,CCOC(=O)N1CCN(S(=O)(=O)c2ccc(C(=O)N(CCCN(C)C)c3nc4ccc(OC)cc4s3)cc2)CC1,inconclusive: -33.3%
6,Cc1cc(Cl)ccc1OCC(=O)Nc1ccncc1,inconclusive: -45.5%
7,CN(C)Cc1cc2ccccc2c2c1COC2,inconclusive: -34.6%
8,CCn1c(=O)c2cc(C(=O)NCCC(C)C)sc2c2ccccc21,inconclusive: -45.6%
9,Cc1ccc(NC(=S)NC(NC(=O)c2ccccc2)C(Cl)(Cl)Cl)c(C)c1 (stereo not given),inconclusive: -36.3%
10,COc1cc(C(=O)NNC(=O)c2cc(-c3ccccc3)n[nH]2)cc(OC)c1C,active: -63.9%
11,CC(C)n1ncc2c(C(=O)Nc3ccc(S(N)(=O)=O)cc3)cc(C3CC3)nc21,inconclusive: -45.3%
12,CCCOc1ccc(C(=O)C(CN2CCCC2)c2ccccc2)cc1 (stereo not given),active: -103%
13,CCOC(=O)C1(Cc2ccc(OC)cc2)CCN(C(=O)c2sc(C)nc2C)CC1,inactive: 24.7%
14,C=CC[C@@H](CC(=O)OC(C)(C)C)C(=O)OC[C@@H]1CCCN1C(=O)[C@@H](CC=C)CC(=O)N(CCO)Cc1ccccc1,active: -54.5%
15,CCCCCCN1C[C@H](n2cc(C3CC3)nn2)[C@@H](O)C[C@@H]1c1ccccc1,inactive: 6.66%
16,COc1ccc2c3n(nc2c1)CCN=C3c1cc(Cl)c(N)c(Cl)c1,inconclusive: -35.3%
17,COc1ccc(/C=N/Nc2ccccc2)cc1Cn1nc(C)c([N+](=O)[O-])c1C,inactive: -15.9%
18,Cc1cc(C)cc(NC(=O)CCc2ccc(C)o2)c1,inconclusive: -35.9%
19,Cc1ccc(-c2csc(Nc3ccccn3)n2)cc1,active: -77.4%
20,O=C(NCCc1ccccc1)/C(=N\O)c1ccccc1,inconclusive: -39.2%
21,O=C(N[C@@H]1C/C=C\C[C@H](CC(=O)N(CCO)Cc2ccccc2)C(=O)NC[C@@H](c2ccccc2)OC1=O)OCC1c2ccccc2-c2ccccc21,inactive: -12.6%
22,COCCC(=O)N1CCOCC1c1cc(C(=O)NCc2ccccc2)no1 (stereo not given),inactive: 35.4%
23,Cc1nc2c(nc1C)C(=O)c1ccccc1C2=O,inactive: -27.9%
24,NC(=O)CC(NC(=O)c1ccccc1)c1ccc(NCCN2CCCCC2)c([N+](=O)[O-])c1 (stereo not given),inactive: 1.02%
25,CC1Cc2nc(SCC(=O)c3ccccc3)n(Cc3ccccc3)c(=O)c2S1 (stereo not given),inconclusive: -38.2%
26,CN(C)c1nc(N(C)C)n(Cc2c(Cl)cccc2Cl)n1,inactive: -1.96%
27,COc1ccc(CCNC(=O)Nc2nc(C(N)CCc3ccccc3)cs2)cc1OC (stereo not given),inconclusive: -48%
28,Cc1cc2[nH]c3c4ccccc4nc(C)c3c2cc1C,active: -112%

row,Compound,activity change
1,CCCCSc1nc2ccc(Nc3nc(N4CCOCC4)nc(N4CCOCC4)n3)cc2s1,inconclusive: -43.3%
2,Cc1ccc(NCC(=O)N/N=C\c2ccc([N+](=O)[O-])o2)cc1,active: -63.7%
3,CCC(C)Sc1ccc([C@H]2N[C@@](Cc3ccccc3)(C(=O)OC)[C@H]3C(=O)N(C)C(=O)[C@@H]23)cc1 (stereo not given in full),inconclusive: -42.7%
4,Cc1ccc(/C=N/Nc2nc3ccccc3s2)o1,inconclusive: -43.2%
5,CC(C)C1S/C(=N/N=C/c2ccco2)NC1=O (stereo not given),inactive: 18.3%
6,C/C(N)=C(/C#N)C(=O)CSc1ccccc1F,inconclusive: -30.7%
7,Cc1ccc(S(=O)(=O)c2c(N)n(CCC(C)C)c3nc4ccccc4nc23)cc1,active: -62.6%
8,CCOC(=O)N/N=C\c1ccc(C)s1,inconclusive: -38.8%
9,CCCOc1ccc(F)cc1-c1cc(C(=O)NCc2cccs2)[nH]n1,inconclusive: -46.1%
10,COc1cccc(/C(C)=N/N=C(\C)c2cccc(OC)c2)c1,inconclusive: -49.4%
11,CCOC(=O)c1c(C)[nH]c(C)c1S(=O)(=O)NCCc1ccco1,inconclusive: -38.3%
12,Fc1cccc(Cc2c(-c3ccco3)nc3ccc(Cl)cn23)c1,inconclusive: -34%
13,O=C(C[n+]1ccc2ccccc2c1)c1cccc2ccccc12,inconclusive: -31.5%
14,CCCCc1nc2n[nH]c(N)c2c2c1CCCC2,inconclusive: -30.2%
15,CC(=O)Nc1ccc(NC(=O)COC(=O)c2c3c(nc4ccccc24)CCN(Cc2ccccc2)C3)cc1,inconclusive: -39.8%
16,CSC(=CC(=O)c1ccc(F)cc1)SC,inconclusive: -36.9%
17,Cc1ccccc1OCC(=O)N(Cc1ccc(N(C)C)cc1)C1CCS(=O)(=O)C1 (stereo not given),inactive: -21.3%
18,O=C1C2C3C=CC(C4CC34)C2C(=O)N1/N=C/c1ccc(-c2cccc([N+](=O)[O-])c2)o1 (stereo not given),active: -61.5%
19,Cc1ccc2c(c1)c1c3n2CCN(C(=O)CCl)C3CCC1 (stereo not given),active: -98.6%
20,COc1ccccc1NC(=O)C1CCC(CNc2c(N3CCCCC3)c(=O)c2=O)CC1 (stereo not given),inconclusive: -33.3%
21,O=c1cc(-c2ccc3c(c2)OCO3)oc2ccccc12,inactive: 24.4%
22,CC1CCCN(C(=O)CN2C(=O)NC(C)(c3ccc4ccccc4c3)C2=O)C1 (stereo not given),inactive: -4%
23,COc1cc(/C=C/C(C)=NNc2ccccc2)ccc1O,active: -93.5%
24,O=C(c1ccc(F)cc1)N1CCN(c2ccc([N+](=O)[O-])cc2-n2cccc2)CC1,inconclusive: -47.8%
25,COc1ccc(-c2noc(CCC(=O)Nc3cc(Cl)c(OC)cc3OC)n2)cc1,inactive: -3.57%
26,CCCCN(C)CCNC(=S)Nc1ccc2nc(N3CCN(CC)CC3)cc(C)c2c1,active: -63.1%
27,CC(=O)NCCC(=O)N(Cc1ccccc1)c1nc2c(C)cccc2s1,inconclusive: -39.3%
